In patent US20170088605A1:
Where a chain is given by its changes, count along the chain named.

B1: EBB-C1975-A7 (antibody)
heavy: QVQLVESGGGLVQPGGSLRLSCAASGFTVSRNYMSWVRQAPGKGLEWVSGIYSGGSTYYADSVKGRFTISRDYSKNTLSLQMNTLRVEDTAVYFCAREDEFWSGYSAGVDWGQGTLVTVSSASTKGPSVFPLAPSSKSTSGGTAALGCLVKDYFPEPVTVSWNSGALTSGVHTFPAVLQSSGLYSLSSVVTVPSSSLGTQTYICNVNHKPSNTKVDKRV[sequence of human IgG1 Fc omitted]
light: [sequence of about 100 residues omitted][sequence of about 100 residues omitted]
B2: EBB-C1975-A3 (antibody)
heavy: B1 heavy with Q1E, S7T, S30R
light: [sequence of about 100 residues omitted][sequence of about 100 residues omitted]
B3: EBB-C1975-E7 (antibody, human IgG1, kappa)
heavy: B1 heavy with Q1E, V5L, Q13R, L20V, S53G, S56R, D61E, S79F, V92L
light: DIQVTQSPSSLSASVGDRVTITCRASQSISSYLNWYQQEPGKAPKLLIYAASTLQTGVPSRFSGSGSGTDFTLTISSLQPEDFATYYCQQSYNTPRTFGQGTKVEIKRTVAAPSVFIFPPSDEQLKSGTASVVCLLNNFYPREAKVQWKVDNALQSGNSQESVTEQDSKDSTYSLSSTLTLSKADYEKHKVYACEVTHQGLSSPVTKSFNRGEC

Tests used:
[1] = biological target: BKV serotype IV VP1 pentamer (BK virus serotype IV), P14996; assay: ELISA on coated BKV serotype IV VP1 pentamers; details: remark: other sources report otherwise
[2] = biological target: BKV serotype IV VLP (BK virus serotype IV), P14996; assay: ELISA on coated BKV serotype IV VLPs; details: remark: other sources report otherwise

Row | Binder | IC50 [1] | IC50 [2]
1 | B1 | 0.078 nM | 0.081 nM
2 | B2 | 0.064 nM | 0.045 nM
3 | B3 | – | 0.044 nM
